In article PMC7212617:
No constants are given. Whether binding was seen depends on the method and setting. Binding seen in cells or lysates may run through a third protein. Some binding calls cover weakened binding; strength is not graded here. For part of these data: Where a sequence is shown, tags or fusion partners need not be part of it.

Experiments:
Experiment in all cases: co-IP; nuclear lysates (2 mg) of mESCs induced with Dox (D) or treated with IAA plus Dox (ID); ANTI-FLAG M2 magnetic beads overnight at 4 °C pull down the FLAG-tagged transgene; washes with 150 mM NaCl, 0.05% Triton X-100; blot with anti-Rad21
[1] = target: T1, transgenic CTCF (3x FLAG-CTCF-mRuby2), doxycycline-inducible, knocked in at the Tigre locus (mouse) (UniProt Q61164)
T1 sequence: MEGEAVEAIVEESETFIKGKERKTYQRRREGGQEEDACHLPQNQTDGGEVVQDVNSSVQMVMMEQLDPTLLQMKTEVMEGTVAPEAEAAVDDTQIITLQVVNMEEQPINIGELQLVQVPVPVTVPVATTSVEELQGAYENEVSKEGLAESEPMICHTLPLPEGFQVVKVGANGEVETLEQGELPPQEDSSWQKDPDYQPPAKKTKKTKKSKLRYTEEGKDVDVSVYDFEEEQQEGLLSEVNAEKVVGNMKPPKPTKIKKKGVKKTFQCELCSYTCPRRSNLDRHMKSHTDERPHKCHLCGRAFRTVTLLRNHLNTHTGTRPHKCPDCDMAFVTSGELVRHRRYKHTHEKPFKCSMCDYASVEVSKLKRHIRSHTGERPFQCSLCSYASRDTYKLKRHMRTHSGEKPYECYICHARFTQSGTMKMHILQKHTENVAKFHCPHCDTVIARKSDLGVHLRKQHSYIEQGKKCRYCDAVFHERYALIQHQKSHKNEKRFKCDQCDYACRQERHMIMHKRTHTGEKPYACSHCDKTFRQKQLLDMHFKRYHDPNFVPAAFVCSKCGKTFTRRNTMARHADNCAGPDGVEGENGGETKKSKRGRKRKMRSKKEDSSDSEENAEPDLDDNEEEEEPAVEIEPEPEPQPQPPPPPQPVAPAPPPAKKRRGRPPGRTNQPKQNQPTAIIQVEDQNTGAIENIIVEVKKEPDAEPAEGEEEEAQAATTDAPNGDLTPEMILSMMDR

[2] = target: T2, CLC: CTCF N terminus - CTCFL zinc fingers - CTCF C terminus chimeric protein (mouse) (UniProt Q61164+A2APF3)
T2 sequence: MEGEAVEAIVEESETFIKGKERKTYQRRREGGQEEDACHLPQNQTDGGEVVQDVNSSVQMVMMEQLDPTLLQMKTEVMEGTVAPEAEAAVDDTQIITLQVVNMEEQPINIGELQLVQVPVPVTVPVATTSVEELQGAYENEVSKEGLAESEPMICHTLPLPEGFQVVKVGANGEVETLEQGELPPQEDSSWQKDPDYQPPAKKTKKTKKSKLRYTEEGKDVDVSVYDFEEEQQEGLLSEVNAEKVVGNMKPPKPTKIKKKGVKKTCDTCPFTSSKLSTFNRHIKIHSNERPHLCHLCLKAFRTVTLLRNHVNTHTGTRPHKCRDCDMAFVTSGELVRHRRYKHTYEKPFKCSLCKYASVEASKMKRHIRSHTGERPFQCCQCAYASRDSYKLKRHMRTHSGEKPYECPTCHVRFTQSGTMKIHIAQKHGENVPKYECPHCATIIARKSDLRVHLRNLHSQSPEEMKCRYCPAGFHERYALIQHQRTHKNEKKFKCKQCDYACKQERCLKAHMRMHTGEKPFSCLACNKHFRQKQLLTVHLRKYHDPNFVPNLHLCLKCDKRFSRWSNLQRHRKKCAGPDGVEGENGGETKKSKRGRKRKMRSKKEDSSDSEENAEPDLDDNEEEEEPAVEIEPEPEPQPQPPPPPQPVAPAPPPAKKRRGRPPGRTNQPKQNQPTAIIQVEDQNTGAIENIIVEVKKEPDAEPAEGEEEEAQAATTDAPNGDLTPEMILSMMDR

[3] = target: T3, transgenic CTCFL (3x FLAG-CTCFL-mRuby2), doxycycline-inducible, knocked in at the Tigre locus (mouse) (UniProt A2APF3)
T3 sequence: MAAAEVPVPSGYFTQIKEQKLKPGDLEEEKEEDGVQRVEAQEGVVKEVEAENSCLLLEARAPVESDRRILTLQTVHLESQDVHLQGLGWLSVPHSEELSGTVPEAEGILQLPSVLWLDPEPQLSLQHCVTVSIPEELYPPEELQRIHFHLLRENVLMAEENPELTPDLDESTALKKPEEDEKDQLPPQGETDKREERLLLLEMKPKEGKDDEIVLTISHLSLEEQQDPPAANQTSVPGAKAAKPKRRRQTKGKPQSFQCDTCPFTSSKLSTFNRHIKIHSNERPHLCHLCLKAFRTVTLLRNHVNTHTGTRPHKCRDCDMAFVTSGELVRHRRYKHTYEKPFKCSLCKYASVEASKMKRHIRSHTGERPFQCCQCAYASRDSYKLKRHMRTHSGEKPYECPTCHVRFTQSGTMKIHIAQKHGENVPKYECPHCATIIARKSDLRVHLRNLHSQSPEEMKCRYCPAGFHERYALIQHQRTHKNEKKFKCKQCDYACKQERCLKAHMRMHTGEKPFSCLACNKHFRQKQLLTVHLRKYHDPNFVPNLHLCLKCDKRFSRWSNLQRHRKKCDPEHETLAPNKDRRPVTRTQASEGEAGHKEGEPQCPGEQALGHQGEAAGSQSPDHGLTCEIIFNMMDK

B1: RAD21, a component of the cohesin complex (protein, UniProt Q61550 1-635)
chain: MFYAHFVLSKRGPLAKIWLAAHWDKKLTKAHVFECNLESSVESIISPKVKMALRTSGHLLLGVVRIYHRKAKYLLADCNEAFIKIKMAFRPGVVDLPEENREAAYNAITLPEEFHDFDQPLPDLDDIDVAQQFSLNQSRVEEITMREEVGNISILQENDFGDFGMDDREIMREGSAFEDDDMLVSTSASNLLLEPEQSTSNLNEKMNHLEYEDQYKDDNFGEGNDGGILDDKLISNNDGGIFDDPPALSEAGVMLPEQPAHDDMDEDDNGSLGGPDSPDSVDPVEPMPTMTDQTTLVPNEEEAFALEPIDITVKETKAKRKRKLIVDSVKELDSKTIRAQLSDYSDIVTTLDLAPPTKKLMMWKETGGVEKLFFLPAQPLWNNRLLKLFTRCLTPLVPEDLRKRRKGGEADNLDEFLKEFENPEVPREEQQPQQQQPQPQRDVIDEPIIEEPSRLQDSVMEASRTTIEESAMPPPPPQGVKRKAGQIDPEPSIPPQQVEQMEIPPVELPPEEPPNICQLIPELELLPEKEKEKEKEKEEEEEEEDEDASGGDQDQEERRWNKRTQQMLHGLQRALAKTGAESISLLELCRNTNRKQAAAKFYSFLVLKKQQAIELTQEEPYSDIIATPGPRFHII
**Q.** How did the binding [1] turn out when B1 was run?
**A.** The binding was “binds”.

**Q.** What about the binding [2] of the same binder?
**A.** Its binding is “binds”.

**Q.** What about the binding [3] of the same binder?
**A.** Its binding is “no binding”.
